In all, about 48,000 compounds went through this assay and about 120 (0.25%) were called active. Another 4% or so got no clear call; they are omitted. The call rests on the fitted dose curve; in most records, active means well fitted activation curve with a large enough effect; inconclusive means small, poorly fitted or top-dose-only effect, or another doubt; inactive means no such curve, though single readings can be large or run the other way. Some of the results follow.

These results are taken from PubChem BioAssay AID1508624 (National Center for Advancing Translational Sciences (NCATS), 2021).

This test can be described thus: Primary qHTS for Identification of Small Molecule Activators of Huntingtin-Antisense Promoter Activity. Further: nearly all actives have a fitted effect of over 55% in size. The settings on record: HEK293 HTT-AS promoter firefly luciferase reporter, 24 h; series mostly up to 57.5 µM; activity change, positive = activation: at the top concentration. In outline: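 Luminescence was read after Dual-Glo reagent and a 10 min room-temperature incubation. Values were normalized to vehicle (0% activity) and zero RLU (-100% activity). Reporter HEK293 cells had been exposed to compounds (up to 57.5 uM final) for 24 h.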
On the technique in general: qHTS replaces the single test concentration by a dilution series.
On to `CC(CNC(=O)c1ccc(Cn2c(SCc3ccccc3)nc3cccnc32)cc1)c1ccccc1` (stereo unspecified), for which the “activity change, positive = activation” value was inactive: -3.47%.
Then `COc1ccc2oc(=O)cc(CN3CCN(C(=O)c4ccccc4)CC3)c2c1`, with inactive: -10.5%.
For `O=C(Nc1ccc(O)c(-c2nc3ccccc3o2)c1)c1cccs1`, the “activity change, positive = activation” value is inactive: 6.9%.
Consider `Cc1ccc(C)c(CN2C(=O)c3ccccc3Sc3ccc(C(=O)NCCCOC(C)C)cc32)c1`, for which the “activity change, positive = activation” value was inactive: -37.5%.
Then `O=C(CSc1n[nH]c(-c2ccccc2Cl)n1)N1CCN(c2ccc(F)cc2)CC1`, with inactive: -21.4%.
As for `CCOC(=O)c1ccc(N2C(=O)c3n[nH]c(C)c3C2c2ccc(C(C)C)cc2)cc1` (stereo unspecified), the figure is inactive: -4.3%; as for `CC(C)c1nn2c(=O)cc(COC(=O)c3ccc(NC(=O)c4ccccc4Cl)cc3)nc2s1`, inactive: -4.12%.
Then `CC(C)NC(=O)c1nn(C)c2c1CS(=O)(=O)c1ccccc1-2`, with inactive: 5.16%; and `COC(=O)c1cc(Cl)ccc1NC(=O)Cn1c(C)cc(C)c(C#N)c1=O`, with inactive: -8.37%.
`Clc1ccc(CN2CCc3nc(Nc4ccc5c(c4)OCCO5)ncc3C2)cc1`: the “activity change, positive = activation” value was inactive: -7.19%.
For the compound `CCOc1ccccc1CN(CCc1ccc2c(c1)OCO2)Cc1cc(OC)c(OC)cc1OC`, the “activity change, positive = activation” value was inactive: -13.9%.
Then `Cc1ccccc1C(=O)NCc1ccc2c(c1)CCN2C(=O)c1ccccc1`, with inactive: -34.5%; and `CCn1c(=O)c2sccc2n2c(CCCC(=O)N3CCN(c4ccccc4OC)CC3)nnc12`, with inactive: -4.96%; and `CCCCCCOc1ccccc1C(N)=O`, with inactive: -5.88%.
Then `O=C(c1ccc(F)cc1)N1c2ncnn2C2(CCCCC2)[C@@H]2CCCC[C@@H]21`, with inactive: -29%; and `COc1ccc(CNC(=O)C(=O)NCC(c2cccs2)S(=O)(=O)c2ccc(C)cc2)cc1` (stereo unspecified), with inactive: -34%; and `CCn1c(SCC(=O)Nc2cccc(Cl)c2)nnc1-c1nonc1NC(C)=O`, with inactive: -18.1%.
As for `Cc1ccc(-c2nsc(NC(=O)c3oc4cc(C)c(Cl)cc4c3C)n2)cc1`, the figure is inactive: 2.29%; as for `CCCCOc1ccc(C(=O)Nc2ccc3c(c2)N(C(C)=O)CCC3)cc1`, inactive: -87.9%; as for `Cn1cccc1-c1cc2n(n1)CCC(=O)N2CC(=O)Nc1ccc(F)cc1Cl`, inactive: -12.5%.
With `CC(C)NC[C@@H](C(=O)N1CCN(c2ncnc3c2[C@H](C)C[C@H]3O)CC1)c1ccc(Cl)cc1`, the “activity change, positive = activation” value is inactive: -39.8%.
As for `Cc1ccc(S(=O)(=O)N2CCCc3cc(NC(=O)c4cccc(Cl)c4)ccc32)cc1`, the “activity change, positive = activation” value was inactive: 0%.
As for `CCOc1cc(CNc2ccc(O)cc2)cc(Cl)c1OCc1ccccc1`, the figure is inactive: -21.4%; as for `Cc1c(NC(=O)Cc2ccccc2)cccc1-c1nc2cccnc2s1`, inactive: -2.19%; as for `CCOC(=O)c1c(C)[nH]c(C)c1S(=O)(=O)N1CCC(C(=O)NCc2ccc(OC)cc2)CC1`, inactive: 2.21%.
Then `Cn1nc(-c2ccccc2F)c2cc(C(=O)N3CCN(c4ccccc4F)CC3)sc21`, with inactive: -52.8%.
Then `CCOc1ccc(NC(=O)c2cc3nc(-c4ccc(OC)cc4)cc(C(F)(F)F)n3n2)cc1`, with inactive: 4.08%; and `COC(=O)c1ccc2c(=O)n(CCCCCC(=O)N3CCN(c4cccc(C)c4C)CC3)c(=O)[nH]c2c1`, with inactive: -41.2%; and `COCCCNc1nc2c(-c3cccc(Br)c3)nnn2c2ccccc12`, with inactive: 15.3%.
Regarding `CCS(=O)(=O)N1CCc2cc(C(=O)NCc3ccc(C)cc3)ccc21`, the “activity change, positive = activation” value was inactive: -15.6%.
As for `O=C(CSc1nc2c([nH]c3ccccc32)c(=O)n1-c1ccc(F)cc1)Nc1ccc2c(c1)OCCO2`, the figure is inactive: -31.2%; as for `Cc1cccc(-c2cc(-c3ccccc3)nc(SCC(=O)Nc3ccccc3)c2C#N)c1`, inactive: 16.3%; as for `Cc1ccc(S(=O)(=O)N(CC(O)Cn2c3ccccc3c3ccccc32)c2cccc(C(=O)NCCO)c2)cc1` (stereo unspecified), inactive: -42.6%.
In the case of `CCC(Cn1nnc2ccccc2c1=O)NC(=O)Nc1ccccc1Cl` (stereo unspecified), the “activity change, positive = activation” value is inactive: -10%.
As for `CCC(Sc1nc2ncccc2[nH]1)C(=O)Nc1ccccc1F` (stereo unspecified), the figure is inactive: -15.4%; as for `CC(C)(C)c1cc(C(C)(C)C)c(NC(=O)c2c[nH]c3ccccc3c2=O)cc1O`, inactive: -8.24%.
For `COc1ccc2c(CNCc3cccs3)c(C(=O)O)n(Cc3ccccc3C)c2c1`, the “activity change, positive = activation” value was inactive: -11.4%.
Then `O=C(OCC1CCCO1)c1ccc2c(c1)N(Cc1ccc(F)cc1)C(=O)c1ccccc1S2(=O)=O` (stereo unspecified), with inactive: -18.1%; and `COc1cc(OC)c(N(C)C(=O)c2cc3c(s2)-c2ccccc2OC3)cc1Cl`, with inactive: -23.8%.
Then `Cc1ccc(Cl)cc1NC(=O)N1CCC(CN2CCc3ccccc3C2)CC1`, with inactive: -15.3%; and `CCC(=O)NCc1nc2ccccc2n1Cc1ccccc1`, with inactive: -6.23%.
For the compound `Cc1ccc(Sc2ccc(N3CCC(C(=O)Nc4ccc(Cl)cc4)CC3)nn2)cc1`, the “activity change, positive = activation” value was inactive: -14.3%.
On to `CCc1ccc(C(=O)c2cn(CC(=O)NCc3ccc(C)cc3)c3nc(C)ccc3c2=O)cc1`, for which the “activity change, positive = activation” value was inactive: -20.6%.
Then `CCOC(=O)CCNC(=O)N1CCN(S(=O)(=O)c2ccc3c(ccn3C)c2)CC1`, with inactive: -9.7%.
As to `Cc1ccc(CNC(=O)Cn2c(-c3cccs3)cc3cc(Cl)ccc32)cc1`, the “activity change, positive = activation” value was inactive: -20.9%.
As for `O=C(Nc1nc2c(F)cccc2s1)c1ccc2c(c1)OCCO2`, the figure is inactive: -38.2%.
Consider `Cc1ccc(CNC(=O)c2ccc3c(c2)NC(=O)C(CS(=O)(=O)Cc2cccc(F)c2)N3)cc1` (stereo unspecified), for which the “activity change, positive = activation” value was inactive: -25.9%.
Then `Cc1ccc(N2C(=O)C(CC(=O)Nc3ccc(F)cc3)N(Cc3ccc4c(c3)OCO4)C2=O)cc1` (stereo unspecified), with inactive: -1.81%.
As to `CC(=O)c1ccc(NC(=O)c2cc3c(=O)oc4ccc(C)cc4c3s2)cc1`, the “activity change, positive = activation” value was inactive: -14%.
As to `Cc1cccc(N2C(=O)C(CC(=O)Nc3cccc(F)c3)N(CCc3ccncc3)C2=O)c1` (stereo unspecified), the “activity change, positive = activation” value is inactive: -15.9%.
As for `Cc1ccc(C(=O)Nc2ccc(S(=O)(=O)N(Cc3ccccc3)c3ccccc3)cc2)cc1`, the figure is inactive: -35.2%; as for `COc1ccc(NC(=O)C2=CC(c3ccc4c(c3)OCO4)=NS(=O)(=O)N2C)cc1OC`, inactive: -21.3%; as for `O=S(=O)(c1ccc(Cl)cc1)c1nc(-c2ccccc2F)oc1NCc1ccccc1`, inactive: -5.79%.
Regarding `Cc1c(C(=O)NCc2ccc(Cl)cc2)sc2nc3n(c(=O)c12)CCC3`, the “activity change, positive = activation” value is inactive: -7.52%.
Consider `CN1CCN(CC(=O)N2c3ccccc3C(=O)Nc3cccnc32)CC1`, for which the activity change, positive = activation is inactive: -5.42% [at 6 µM, percent change from vehicle, -100% = no light].
Then `COc1ccc(-c2nc3n(n2)C(c2ccccc2)C(C(=O)Nc2cccnc2)=C(C)N3)cc1` (stereo unspecified), with inactive: -16%; and `COCCNC(=O)CN1C(=O)CCn2nc(-c3cn(C)c4ccccc34)cc21`, with inactive: -9.03%.
As for `CCOC(=O)N1CCN(CCC(=O)Nc2cccc(F)c2)CC1`, the figure is inactive: 7.78% [at 11.5 µM, percent change from vehicle, -100% = no light].
Then `COc1cc([C@@H]2Nc3c(F)cccc3[C@@H]3C=CC[C@@H]32)cc(Br)c1OC`, with inactive: -15.3%; and `Cc1c(C(=O)O)oc2c1-c1nn(Cc3ccccc3Cl)cc1CC2`, with inactive: -26.9%; and `CC(=O)N(CC(O)CO)c1c(I)c(C(=O)NCCO)c(I)c(C(=O)NCC(O)CO)c1I` (stereo unspecified), with inactive: 5.11%.
For `COc1ccc2c(Sc3ccc(C)cc3)c(C(=O)NC(C)c3ccccc3)[nH]c2c1` (stereo unspecified), the “activity change, positive = activation” value is inactive: 9.1%.
In the case of `CCc1ccccc1NC(=O)c1ccc(F)c(S(=O)(=O)N2CCN(c3ccccc3OC)CC2)c1`, the “activity change, positive = activation” value is inactive: -40.6%.
For the compound `O=C(Cc1ccc(NC(=O)N2CCSc3ncccc32)cc1)NCc1cccc(Cl)c1`, the “activity change, positive = activation” value is inactive: -19.4%.
Take `Cc1ccc2c(=O)c(C(=O)c3ccc(Cl)cc3)cn(CC(=O)Nc3ccc4c(c3)OCCO4)c2n1`: the “activity change, positive = activation” value was inactive: -20.4%.
Then `Cc1cccc(C(=O)NCc2nc3ccccc3n2Cc2ccccc2Cl)c1`, with inactive: -16.7%; and `CCOc1ccccc1CNC(=O)c1oc2c(c1C)-c1nn(Cc3cccc(Cl)c3)cc1CC2`, with inactive: -33.5%; and `Cc1ccc(NC(=O)C2CCCN2S(=O)(=O)c2cccc3cccnc23)c(C)c1` (stereo unspecified), with inactive: -24.6%.
As for `O=C(Nc1cccc(OCc2cc(=O)n3ccccc3n2)c1)Nc1cccc(C(F)(F)F)c1`, the figure is inactive: 18.7%.
Then `COc1ccc(Cl)cc1C(=O)NCCS(=O)(=O)N1CCN(c2ccccc2OC)CC1`, with inactive: -23.6%; and `COc1cccc(NC(=O)Cn2c(=O)n(Cc3ccc(C(=O)NCc4ccc(C)cc4)cc3)c(=O)c3ccccc32)c1`, with inactive: -11.6%; and `CCOC(=O)c1c(C)n(-c2ccccc2)c2ccc(OC(=O)c3c(F)cccc3F)cc12`, with inactive: -22.6%.
On to `CCOc1ccc(Cn2c(CNS(=O)(=O)c3ccc(C(C)(C)C)cc3)nc3cccnc32)cc1`, for which the “activity change, positive = activation” value is inactive: -20.7%.
Regarding `COc1ccc(CCNC(=O)C2c3ccccc3C(=O)N2Cc2ccccc2)cc1OC` (stereo unspecified), the “activity change, positive = activation” value was inactive: -17.4%.
As for `COc1ccc(OC)c(CC2C(=O)Nc3ccc(Br)cc32)c1` (stereo unspecified), the “activity change, positive = activation” value is inactive: -51.2%.
As for `CCOC(=O)c1c(C)oc2ccc(N(C(C)=O)S(=O)(=O)c3c(C)cc(C)cc3C)cc12`, the figure is inactive: -14.9%; as for `COC(=O)c1cc2sccc2n1Cc1ccc(F)cc1Cl`, inactive: -12.6%; as for `C[C@H](CCC(=O)O)[C@H]1CC[C@H]2[C@@H]3[C@H](O)C[C@@H]4C[C@H](O)CC[C@]4(C)[C@@H]3CC[C@]12C`, inactive: -26.3%.
As for `Cc1cc(N2CCN(c3cc(Cl)ccc3C)CC2)n2nc(-c3ccccc3)nc2n1`, the figure is inactive: -14.5%; as for `N#Cc1ccc(NC(=O)C2Cc3ccccc3CN2S(=O)(=O)c2ccc(F)cc2)cc1` (stereo unspecified), inactive: -39.3%; as for `CCCCNC(=O)C1CCC(Cn2c(=O)c3sccc3n(CC(=O)Nc3ccccc3)c2=O)CC1` (stereo unspecified), inactive: -15.7%.
For the compound `O=C(COc1ccc(F)cc1)Nc1ccc2nc(SCCOc3ccccc3)sc2c1`, the “activity change, positive = activation” value was inactive: -18%.
As for `COCCn1c(=N)c(C(=O)NC2CCCC2)cc2c(=O)n3cc(C)ccc3nc21`, the figure is inactive: 1.77%; as for `O=C(Nc1ccccc1C(=O)OCc1cc(=O)n2ccsc2n1)c1ccccc1Cl`, inactive: 18.3%; as for `CCN(CC)CCNC(=O)c1cn(CC)c2ccc(S(=O)(=O)N3CCc4ccccc4C3)cc2c1=O`, inactive: -10.8%.
On to `CCC(=O)N1CCc2cc(Br)cc(S(=O)(=O)CCC(=O)Nc3ccc(Cl)cc3)c21`, for which the “activity change, positive = activation” value is inactive: 11.9%.
Consider `Cc1cccc(C)c1NC(=O)CCC(=O)N1Cc2ccccc2Oc2ncccc21`, for which the “activity change, positive = activation” value was inactive: -14.4%.
As for `CCOC(=O)c1cc(-c2ccc(C)cc2)n(CCC(=O)NCCc2ccc(C)cc2)c1C`, the figure is inactive: -23.3%.
Then `COc1cc(-c2cc3n(C)c(C)c(CCC(=O)NC4CCCCC4)c(=O)n3n2)cc(OC)c1OC`, with inactive: -11.6%; and `CCC(=O)N1CCc2cc(Br)cc(S(=O)(=O)N3CCN(c4cc(C)ccc4C)CC3)c21`, with inactive: -9.79%; and `COc1ccc(Oc2nc3c(c(=O)n(C)c(=O)n3C)n2Cc2ccc(Cl)cc2Cl)cc1`, with inactive: 8.46%.
